Source: PubChem BioAssay AID1346428 (National Center for Advancing Translational Sciences (NCATS), 2018)
Screen size: about 48,000 compounds; about 1,200 (2.5%) were called active. About 2% were inconclusive and are not listed.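 How the source made its calls: active means activation of at least 60% and not above a set upper limit (about 1 call in 100 departs from these limits); inconclusive means activation of 40% to 60%, or above that upper limit; inactive means activation under 40%.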 The list shows a part of the results.

What follows are compounds tested against Probable G-protein coupled receptor 32 (Homo sapiens) (UniProt O75388) (assay: qHTS for Agonists of Human Resolvin D1 Receptor DRV1). Details: CHO-K1 GPR32 beta-arrestin PathHunter luminescence, 90 min; at 76.9 µM; active compounds read high; zero percent set by DMSO-only wells.
Procedure, shortened: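 PathHunter beta-arrestin recruitment in CHO-K1 cells stably expressing ProLink-tagged GPR32. Cells were exposed to compound for 90 min at 37 C, then chemiluminescence was read after 1 h detection at ambient temperature; DMSO served as basal control.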
Further: 0% is about no effect.

Sequence of UniProt O75388 (O75388 whole entry, looked up): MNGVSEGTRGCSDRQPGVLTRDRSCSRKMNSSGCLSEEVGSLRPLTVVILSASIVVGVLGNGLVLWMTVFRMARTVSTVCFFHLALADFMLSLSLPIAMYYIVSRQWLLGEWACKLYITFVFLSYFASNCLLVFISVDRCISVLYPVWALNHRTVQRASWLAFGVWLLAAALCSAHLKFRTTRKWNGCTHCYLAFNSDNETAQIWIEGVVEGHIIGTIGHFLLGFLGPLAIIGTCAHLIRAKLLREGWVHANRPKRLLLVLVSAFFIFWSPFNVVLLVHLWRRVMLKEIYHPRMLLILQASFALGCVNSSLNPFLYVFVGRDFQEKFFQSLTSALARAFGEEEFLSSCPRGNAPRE

activation, inactive:
CCOC(=O)c1ccc(NC(=O)C2CCCN(c3ccc(Sc4ccc(C)cc4)nn3)C2)cc1 (stereo not drawn) -8.64%, Cc1ccc(C2c3c(oc4ccccc4c3=O)C(=O)N2c2ccc(C)cn2)cc1 (stereo not drawn) -9.62%, CCOc1ccc2nc(NC(=O)CS(=O)(=O)c3ccc(Cl)cc3)sc2c1 23.8%, N#Cc1ccc(CN2C(=O)c3ccccc3Sc3ccc(C(=O)OCc4ccco4)cc32)cc1 -0.811%, COc1ccc(Nc2cc(C(=O)NC3CCCC3)c3ccccc3n2)c(OC)c1 22.6%, CCNC(=O)Cn1c(-c2cccs2)cc2ccccc21 -18%, Cc1ccc(CN(C(=O)Nc2cccc(Cl)c2)c2ccccn2)cc1 4.86%, COc1ccc(NC(=O)c2nnn(Cc3nc(-c4cc(Br)ccc4OC)oc3C)c2C)cc1 3.64%, CCOc1cccc(C2c3c(oc4ccc(F)cc4c3=O)C(=O)N2CCc2ccc(OC)cc2)c1 (stereo not drawn) 10.5%, COc1ccc(NC(=O)C2CCN(S(=O)(=O)c3ccc4c(c3)CCCC(=O)N4)CC2)cc1Cl 1.95%, Cc1oc(C)c2c(=O)cc(-c3ccc4c(c3)OCO4)cc(OC(=O)c3ccccc3Br)c12 -8.78%, COc1cc(OC)c(NC(=O)c2cc(CN3CCOCC3)on2)cc1Cl -7.4%, CCn1ccc2cc(S(=O)(=O)N3CCCN(C(=O)NCC(C)C)CC3)ccc21 14.6%, COc1cc(/C=C(\C#N)c2nc3ccccc3c(=O)[nH]2)cc(OC)c1OC -0.0837%, Cc1ccc(Cn2c(-c3ccccc3)nc3ccccc32)cc1 -3.14%, Cc1ccc(-c2nc3ccccc3n3c(-c4ccccc4)c4c(=O)n(C)c(=O)n(C)c4c23)cc1 -13.8%, COc1ccc(S(=O)(=O)N2CCN(c3ccccc3OC)CC2)cc1-c1noc(C)n1 -12.8%, CCCCNC(=O)c1cc(Sc2ccc(OCC)cc2)nc2ccccc12 -7.14%, CCOc1ccccc1NC(=O)Cn1ccn(-c2ccccc2)c(=O)c1=O -5.32%, COc1ccccc1N1CCN(c2csc3ccc(Cl)cc3c2=O)CC1 -37.9%, Cc1ccc(C)c(Cn2c(=O)n(CCCCC(=O)NCc3ccccc3Cl)c(=O)c3ccccc32)c1 -8.74%, CCn1ccc2cc(S(=O)(=O)N3CCC(C(=O)NCc4cccc(C)c4)CC3)ccc21 7.58%, O=C(NCCSCc1ccc(Cl)cc1)C1CCN(S(=O)(=O)Cc2ccccc2)CC1 9.95%, CCn1cc(C(=O)NCc2ccc(C)cc2)c(=O)c2cc(S(=O)(=O)N3CCC(C)CC3)ccc21 1.45%, Cc1ccc(-c2c(C(=O)Nc3ccc(F)c(F)c3)oc(=O)c3ccccc23)cc1 -6.5%, CN(C)c1ccc(CNC(=O)c2cc3cc(S(=O)(=O)N4CCCCC4)ccc3n2C)cc1 -29.4%, O=C(CN1C(=O)C2CCCCN2c2ccc(C(=O)N3CCCC3)cc21)NCc1cccc(Cl)c1 (stereo not drawn) -28.8%, CC(=O)[C@H]1CC[C@H]2[C@@H]3C[C@H](C)C4=CC(=O)CC[C@]4(C)[C@H]3[C@@H](O)C[C@]12C 26.4%, Cc1ccc(Cl)c2sc(NC(=O)CS(=O)(=O)c3ccc(Cl)cc3)nc12 7.15%, CCOc1ccc(CNS(=O)(=O)c2c(C(=O)N3CCCCCC3)c(C)n(C)c2C)cc1OC -8.62%, CCOC(=O)OC(C)OC1=C(C(=O)Nc2ccccn2)N(C)S(=O)(=O)c2ccccc21 (stereo not drawn) -11.4%, CCOC(=O)c1ccccc1NC(=O)c1sc2ncn(Cc3cccc(F)c3)c(=O)c2c1C -12.7%, O=C(O)c1ccc(-n2c(/C=C\c3ccc(O)cc3)nc3ccccc3c2=O)cc1 1.56%, Cc1ccc(C2=Nc3ccccc3N(CC(=O)NCc3ccc(F)cc3)C(=O)C2)cc1C -8.35%, COc1ccc(/C=C(\C#N)c2nc(-c3cc4c(ccc5ccccc54)oc3=O)cs2)cc1O -2.85%, CCn1cc(C(=O)O)c(=O)c2cnc(N3CCCC3)nc21 -1.63%, COc1ccc(C(=O)Nc2cccc(OCc3cc(=O)n4c5c(sc4n3)CCCC5)c2)cc1 -2.38%, Cn1c(=O)c2c(nc3n(-c4ccc(O)cc4)c(-c4ccc(Br)cc4)cn23)n(C)c1=O -2.36%, COc1cn(CC(=O)Nc2cccc(C)c2C)c(CN2CCCCC2)cc1=O -0.948%, Cc1ccc(C)c(NC(=O)CSc2c3c(nc4ccc(Cl)cc24)CCCC3)c1 -10.6%, COc1ccc(OC)c(S(=O)(=O)NCc2cccn2Cc2cccc(C)c2)c1 -21.2%, COC(=O)c1sc(NC(=O)/C=C/c2ccc(OC)c(OC)c2)c(C(=O)OC)c1C -15.6%, COc1ccc(CNC(=O)CSc2nc3ccccc3nc2Cc2ccccc2OC)cc1 -11.6%, COc1ccc(OCc2nc3c4c(-c5ccccc5)c(-c5ccccc5)oc4ncn3n2)cc1 -5.01%, COc1cccc(C(=O)c2cn(CC(=O)NCc3ccccc3)c3nc(C)ccc3c2=O)c1 -9.25%, COc1ccccc1-c1cc(C(=O)Nc2ccccc2C(F)(F)F)no1 35.9%, COc1ccccc1NC(=O)CSc1nc2ccccc2c2nc(-c3ccccc3)nn12 -8.13%, COC(=O)c1cc2c(cc1NC(=O)c1cnn(-c3ccc(C)cc3)c1-n1cccc1)OCO2 -10.1%, CC(C)NC(=O)CCCN1C(=O)CCn2nc(-c3cccn3C)cc21 -5.58%, CCN1CCN(c2cc3c(cc2F)c(=O)c(S(=O)(=O)c2ccccc2)cn3C)CC1 -1.99%, Cc1[nH]c2ccccc2c1C1N2CC3(C)CN1CC(C)(C2)C3=O (stereo not drawn) -4.55%, Cc1cccc(CNC(=O)CSCc2cnn(-c3ccccc3)c2-n2cccc2)c1 -22.8%, CCOC(=O)c1ccc(NS(=O)(=O)c2cc(-c3onc(C)c3C)ccc2C)cc1 -3.14%, Cc1nn(C)c2c1c(C(F)(F)F)cc(=O)n2C(C)C(=O)NCc1ccc(Cl)cc1 (stereo not drawn) -3.82%, O=C(Nc1ccc(Br)cc1F)N1CCC(CN2CCCC2)CC1 -7.15%, O=S(=O)(O)CCS -9.49%, CC1=C(C(=O)OCc2ccccc2)C(c2cccc(Cl)c2Cl)CC(=O)N1 (stereo not drawn) 46.2%, COc1cc(OC)c(C2Nc3c(C)cccc3-c3cc(C)nn32)cc1OC (stereo not drawn) 4.22%, CCN1C(=O)c2ccccc2S(=O)c2ccc(C(=O)N3CCN(c4cccc(C)c4)C(C)C3)cc21 (stereo not drawn) -3.71%, CC1=C(c2ccc(C)cc2)S(=O)(=O)NC1=NCc1cccc(F)c1 -18.4%, COC(=O)c1ccc(NC(=O)CC2C(=O)N(c3ccc(Cl)cc3)C(=O)N2Cc2ccco2)cc1 (stereo not drawn) -23.5%, Cn1c(-n2cccc2)c(-c2c(-c3ccccc3)[nH]c3c2c(=O)n(C)c(=O)n3C)c(=O)n(C)c1=O 8.22%, CCCCOC(=O)c1ccc(NC(=O)CSc2nc3c(c(=O)[nH]2)CCCC3)cc1 -9.45%, CCOc1ccccc1NC(=O)CN1C(=O)CC(c2ccc(OC)c(OC)c2)Sc2ccccc21 (stereo not drawn) -26%, Cc1ccc(-c2nnc(C3CCN(S(=O)(=O)c4ccc(C)c(C)c4)CC3)o2)cc1 -3.09%, COc1ccc(NC(=O)CC2C(=O)N(c3ccc(F)cc3)C(=O)N2Cc2ccco2)cc1 (stereo not drawn) -4.57%, Cc1ccccc1CN1C(=O)c2ccccc2Sc2ccc(C(=O)NC(C)c3ccccc3)cc21 (stereo not drawn) -18.4%, CCN1CCOC(=O)C1CC(=O)Nc1cc(C)cc(C)c1 (stereo not drawn) 22.4%, CCCCCCCCCCC/C=C\C(C)(C)/C=C\CCCC(=O)O -11.2%, Cc1cc(C)cc(NS(=O)(=O)c2ccc3[nH]cc(C(=O)N(C)Cc4ccccc4)c(=O)c3c2)c1 -1.36%, O=C(NCc1ccc(F)cc1)c1cc2c(=O)n3ccccc3nc2s1 13.2%, Cc1ccc(CNC(=O)Cn2c(=O)n(-c3ccc(Cl)cc3)c(=O)c3c(C)c(C)sc32)cc1 -7.32%, O=C(NCc1ccccc1)c1nn(-c2ccccc2)nc1CO -11.2%, COc1ccc(OC)c(/C=C(/C#N)c2nc(-c3ccc(-c4ccccc4)cc3)cs2)c1 -27.1%, Cc1ccc(N2C(=O)CCSC23C(=O)N(Cc2ccccc2)c2ccccc23)cc1F (stereo not drawn) -33.2%, Cc1ccc(CSc2nc3c([nH]c4ccccc43)c(=O)n2C)cc1 4.39%, Cc1c(-c2nc(-c3ccccc3)no2)nnn1-c1cccc(C(F)(F)F)c1 -3.04%, COC(=O)c1ccccc1NC(=O)c1ccc2c(c1)CCN2S(C)(=O)=O -12.4%, COc1cc(Nc2ncc3c(n2)CCN(Cc2cc(Br)cs2)C3)cc(OC)c1 -1.23%, Cc1cc(Nc2ccc(F)cc2)n2c(nc3ccccc32)c1C#N 37.2%, CCCCNc1nc2c(S(=O)(=O)c3ccc(C)c(C)c3)nnn2c2ccsc12 -9.7%, Cc1nn2c(-c3ccco3)ccnc2c1-c1ccc(F)cc1 -6.49%, COc1ccccc1CNC(=O)c1ccc2c(c1)nc(C)n2-c1ccccc1OC -0.527%
